The structures appear in SMILES notation. This is one part of the list.

The subject of one assay is HSkMC. Briefly: cytotoxicity call (relative viability < 0.9). Particulars: 10 µM.
In another assay the test system is HepG2. Briefly: cytotoxicity call (relative viability < 0.9). The following applies: 10 µM.
The next assay has as its system S. aureus RN4220. Briefly: growth inhibition call (relative growth <= 0.2). The following applies: 50 µM.

Take `C[C@@H]1CN([C@@H](C)CO)C(=O)c2cc(C3=CCCCC3)cnc2O[C@@H]1CN(C)C(=O)CN1CCOCC1`: the cytotoxicity call in the assay with HSkMC and with HepG2 was “inactive” each time. Also, the growth inhibition call in the assay with S. aureus RN4220 was “inactive”.

Consider `C[C@H]1CN([C@@H](C)CO)C(=O)c2c(c3ccccc3n2C)-c2ccccc2CO[C@@H]1CN(C)C(=O)NC1CCCCC1`, for which the cytotoxicity call in the assay on HSkMC and with HepG2 was “inactive” in each case. Also, the growth inhibition call in the assay with S. aureus RN4220 was “inactive”.

On to `NNC(=O)c1cc(-c2ccccc2)n[nH]1`, for which the cytotoxicity call in the assay with HSkMC and in the assay with HepG2 was “inactive” in each case. Further, the growth inhibition call with S. aureus RN4220 is “inactive”.

For `CC(=O)Nc1cc2c(cc1N)OCCO2`, the cytotoxicity call in the assay on HSkMC and in the assay with HepG2 was “inactive” each time. In the assay with S. aureus RN4220, the growth inhibition call was “inactive”.

On to `Cc1noc(C)c1S(=O)(=O)Nc1ccc2c(c1)CC(=O)N([C@H](C)CO)C[C@H](C)[C@H](CN(C)Cc1ccc(-c3ccccc3)cc1)O2`, for which the cytotoxicity call in the assay with HSkMC and in the assay on HepG2 was “inactive” in each case. The growth inhibition call with S. aureus RN4220 is “inactive”.

Regarding `Cc1noc(C)c1NC(=O)Nc1ccc2c(c1)C(=O)N([C@@H](C)CO)C[C@@H](C)[C@H](CN(C)C(=O)Nc1cccc3ccccc13)O2`, the cytotoxicity call in the assay with HSkMC and with HepG2 was “inactive” in each case. The growth inhibition call in the assay on S. aureus RN4220 is “inactive”.

Regarding `C[C@H]1CN([C@@H](C)CO)C(=O)Cc2cc(NC(=O)C3CC3)ccc2O[C@@H]1CN(C)S(=O)(=O)c1ccccc1`, the cytotoxicity call in the assay on HSkMC and with HepG2 was “inactive” throughout. The growth inhibition call with S. aureus RN4220 is “inactive”.

Consider `COc1ccc(CN(C)C[C@@H]2OCCCC[C@H](C)Oc3ccc(NC(=O)Cc4ccccc4)cc3C(=O)N([C@H](C)CO)C[C@H]2C)cc1`, for which the cytotoxicity call in the assay on HSkMC and in the assay with HepG2 was “inactive” in each case. Moreover, in the assay with S. aureus RN4220, the growth inhibition call was “inactive”.

In the case of `C[C@@H]1CCCCO[C@@H](CN(C)Cc2ccccc2)[C@H](C)CN([C@@H](C)CO)C(=O)c2cc(NC(=O)Cc3ccccc3)ccc2O1`, the cytotoxicity call in the assay with HSkMC and in the assay on HepG2 was “inactive” each time. Further, the growth inhibition call in the assay on S. aureus RN4220 was “inactive”.

On to `COc1ccc(CN(C)C[C@H]2OCCCC[C@H](C)Oc3ccc(NC(=O)c4ccccc4)cc3C(=O)N([C@@H](C)CO)C[C@@H]2C)cc1`, for which the cytotoxicity call in the assay on HSkMC and in the assay with HepG2 was “inactive” in each case. Further, the growth inhibition call in the assay with S. aureus RN4220 is “inactive”.

As for `COc1ccc(NC(=O)Nc2ccc3c(c2)C(=O)N([C@H](C)CO)C[C@H](C)[C@@H](CN(C)Cc2ccc(C(F)(F)F)cc2)OCCCC[C@H](C)O3)cc1`, the cytotoxicity call with HSkMC and in the assay with HepG2 was “inactive” each time. Further, the growth inhibition call in the assay with S. aureus RN4220 is “inactive”.

Regarding `COc1ccc(CN(C)C[C@H]2OCCCC[C@H](C)Oc3ccc(NS(=O)(=O)c4ccc(F)cc4)cc3C(=O)N([C@@H](C)CO)C[C@H]2C)cc1`, in the assay with HSkMC, the cytotoxicity call was “inactive”. The cytotoxicity call in the assay on HepG2 was “active”. The growth inhibition call with S. aureus RN4220 was “inactive”.

As to `Cc1nn(C)c(C)c1C(=O)O`, the cytotoxicity call in the assay on HSkMC (human skeletal muscle cells) and in the assay with HepG2 was “inactive” each time. In the assay with S. aureus RN4220, the growth inhibition call was “inactive”.

On to `Clc1cccc2ccncc12`, for which the cytotoxicity call with HSkMC and in the assay on HepG2 was “inactive” in each case. The growth inhibition call in the assay with S. aureus RN4220 is “inactive”.

For the compound `C[C@@H]1CCCCO[C@@H](CN(C)C(=O)Nc2ccc3c(c2)OCO3)[C@H](C)CN([C@@H](C)CO)C(=O)c2cc(NC(=O)Nc3ccc(C(F)(F)F)cc3)ccc2O1`, the cytotoxicity call in the assay with HSkMC and in the assay with HepG2 was “inactive” in each case. The growth inhibition call with S. aureus RN4220 is “inactive”.

The values above are taken from the antibiotic and cytotoxicity screens of Wong et al. (2023).
